In patent US20230192896A1 (published 2023):

Target: T1, FX zymogen (UniProt P00742 41-179; P00742 183-488)
T1 chain 1: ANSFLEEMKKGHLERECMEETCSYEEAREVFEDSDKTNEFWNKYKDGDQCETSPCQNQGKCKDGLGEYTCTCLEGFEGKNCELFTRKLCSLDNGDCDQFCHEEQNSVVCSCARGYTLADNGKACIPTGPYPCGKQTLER
T1 chain 2: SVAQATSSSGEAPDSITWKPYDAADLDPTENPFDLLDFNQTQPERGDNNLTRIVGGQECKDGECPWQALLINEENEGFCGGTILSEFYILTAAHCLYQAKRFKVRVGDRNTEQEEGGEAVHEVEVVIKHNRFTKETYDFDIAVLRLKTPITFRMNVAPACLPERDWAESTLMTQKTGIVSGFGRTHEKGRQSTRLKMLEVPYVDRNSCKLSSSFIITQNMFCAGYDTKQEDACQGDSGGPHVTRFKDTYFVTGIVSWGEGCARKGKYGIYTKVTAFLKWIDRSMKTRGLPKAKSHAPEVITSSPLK
Assay: BLI

Kd: 18.8 nM
B1: BIIB-12-1334 (antibody, V domains shown)
VH: QVQLVESGGGVVQPGRSLRLSCAASGFTFSSYGMHWVRQAPGKGLEWVAVISYDGSNKYYADSVKGRFTISRDNSKNTLYLQMNSLRAEDTAVYYCARVPRKQTGHVDYWGQGTLVTVSS
VL: [here about 100 residues without letters]IGTPWTFGGGTKVEIK
